Several values for one entry are separate records, joined by “and”; a condition that tells them apart may be missing. Equal values may be shown once. This continues a long series; more values of the same kind are listed elsewhere.
How the values were obtained:
Type in all cases: cell-based
[1] = target: T1, hTRPV1 T550A (Homo sapiens, UniProt Q8NER1, T550A); experiment: whole-cell patch-clamp, SB-366791 inhibition of pH 5-induced current, T550A; settings: +80 mV, individual cells
T1 construct: we used the same wild-type full-length construct to determine the hTRPV1 structure; expressed in transfected cells; host or cells: HEK293T ΔPIEZO1 cells, pIRES-EGFP plasmid

[2] = target: hTRPV1 (Homo sapiens, UniProt Q8NER1); experiment: whole-cell patch-clamp, SB-366791 inhibition of pH 5-induced current, wild-type hTRPV1; parameters: we used the same wild-type full-length construct to determine the hTRPV1 structure; expressed in transfected cells; host or cells: HEK293T ΔPIEZO1 cells, pIRES-EGFP plasmid; settings: WT, +80 mV, individual cells
[3] = target: T2, hTRPV1 E693A (Homo sapiens, UniProt Q8NER1, E693A); experiment: whole-cell patch-clamp, SB-366791 inhibition of pH 5-induced current, E693A; settings: +80 mV, individual cells
T2 construct: we used the same wild-type full-length construct to determine the hTRPV1 structure; expressed in transfected cells; host or cells: HEK293T ΔPIEZO1 cells, pIRES-EGFP plasmid

[4] = target: T3, hTRPV1 L547R (Homo sapiens, UniProt Q8NER1, L547R); experiment: whole-cell patch-clamp, SB-366791 inhibition of pH 5-induced current, L547R; settings: +80 mV, individual cells
T3 construct: we used the same wild-type full-length construct to determine the hTRPV1 structure; expressed in transfected cells; host or cells: HEK293T ΔPIEZO1 cells, pIRES-EGFP plasmid

COc1cccc(NC(=O)/C=C/c2ccc(Cl)cc2)c1 [SB-366791, N-(3-methoxyphenyl)−4-chlorocinnamide]
I / Imax ([1]; SB-366791 0.0001 μM): 0.984 and 0.939 and 0.992 and 0.982 and 1.002 and 1.072 and 1.014 | I / Imax ([1]; SB-366791 0.001 μM): 0.919 and 0.880 and 0.935 and 0.944 and 0.997 and 1.058 and 0.938 | I / Imax ([1]; SB-366791 0.01 μM): 0.869 and 0.838 and 0.873 and 0.887 and 0.955 and 0.992 and 0.860 | I / Imax ([1]; SB-366791 0.1 μM): 0.869 and 0.860 and 0.820 and 0.865 and 0.954 and 0.957 and 0.846 | I / Imax ([1]; SB-366791 1 μM): 0.801 and 0.714 and 0.685 and 0.803 and 0.854 and 0.896 and 0.816 | I / Imax ([1]; SB-366791 10 μM): 0.777 and 0.753 and 0.646 and 0.744 and 0.842 and 0.836 and 0.745 | I / Imax ([2]; SB-366791 0.0001 μM, normalized to pH5-induced current): 0.896 and 1.014 and 0.847 and 0.830 and 1.095 and 1.000 and 0.940 | I / Imax ([2]; SB-366791 0.001 μM): 0.724 and 1.129 and 0.901 and 0.748 and 0.964 and 0.823 and 0.794 | I / Imax ([2]; SB-366791 0.01 μM): 0.649 and 0.827 and 0.708 and 0.526 and 0.798 and 0.651 and 0.674 | I / Imax ([2]; SB-366791 0.1 μM): 0.491 and 0.600 and 0.485 and 0.379 and 0.446 and 0.382 and 0.463 | I / Imax ([2]; SB-366791 1 μM): 0.339 and 0.394 and 0.328 and 0.292 and 0.252 and 0.211 and 0.325 | I / Imax ([2]; SB-366791 10 μM): 0.312 and 0.299 and 0.289 and 0.307 and 0.210 and 0.166 and 0.271 | I / Imax ([3]; SB-366791 0.1 μM): 0.760 and 0.580 and 0.690 (2×) and 0.640 and 0.590 | I / Imax ([3]; SB-366791 1 μM): 0.600 and 0.470 and 0.510 and 0.420 and 0.450 and 0.390 | I / Imax ([3]; SB-366791 10 μM): 0.610 and 0.390 and 0.450 and 0.420 (2×) and 0.370 | I / Imax ([4]; SB-366791 0.0001 μM): 0.942 and 0.938 and 1.017 and 0.994 and 1.040 and 1.092 and 0.961 | I / Imax ([4]; SB-366791 0.001 μM): 0.930 and 0.917 and 1.020 and 0.916 and 1.013 and 1.109 and 0.999 | I / Imax ([4]; SB-366791 0.01 μM): 0.896 and 0.893 and 0.995 and 0.873 and 0.949 and 1.089 and 0.976 | I / Imax ([4]; SB-366791 0.1 μM): 0.883 and 0.857 and 0.993 and 0.853 and 0.864 and 1.090 and 0.927 | I / Imax ([4]; SB-366791 1 μM): 0.799 and 0.757 and 0.997 and 0.787 and 0.854 and 1.085 and 0.939 | I / Imax ([4]; SB-366791 10 μM): 0.765 and 0.688 and 0.893 and 0.707 and 0.737 and 1.033 and 0.934

— PMC10147690, “Human TRPV1 structure and inhibition by the analgesic SB-366791” (Nature Communications, 2023)
